# Out of some 310,000 compounds screened, about 2,200 (0.71%) showed an effect of 50% or more. The effect is printed as a negative number. This is one part of the list.
# Target: human ether-à-go-go-related gene (hERG) potassium channel (human, UniProt Q12809)
# Test: primary screen, population patch clamp on CHO cells stably expressing hERG
# human ether-à-go-go-related gene (hERG) potassium channel, sequence (Q12809 whole entry, looked up): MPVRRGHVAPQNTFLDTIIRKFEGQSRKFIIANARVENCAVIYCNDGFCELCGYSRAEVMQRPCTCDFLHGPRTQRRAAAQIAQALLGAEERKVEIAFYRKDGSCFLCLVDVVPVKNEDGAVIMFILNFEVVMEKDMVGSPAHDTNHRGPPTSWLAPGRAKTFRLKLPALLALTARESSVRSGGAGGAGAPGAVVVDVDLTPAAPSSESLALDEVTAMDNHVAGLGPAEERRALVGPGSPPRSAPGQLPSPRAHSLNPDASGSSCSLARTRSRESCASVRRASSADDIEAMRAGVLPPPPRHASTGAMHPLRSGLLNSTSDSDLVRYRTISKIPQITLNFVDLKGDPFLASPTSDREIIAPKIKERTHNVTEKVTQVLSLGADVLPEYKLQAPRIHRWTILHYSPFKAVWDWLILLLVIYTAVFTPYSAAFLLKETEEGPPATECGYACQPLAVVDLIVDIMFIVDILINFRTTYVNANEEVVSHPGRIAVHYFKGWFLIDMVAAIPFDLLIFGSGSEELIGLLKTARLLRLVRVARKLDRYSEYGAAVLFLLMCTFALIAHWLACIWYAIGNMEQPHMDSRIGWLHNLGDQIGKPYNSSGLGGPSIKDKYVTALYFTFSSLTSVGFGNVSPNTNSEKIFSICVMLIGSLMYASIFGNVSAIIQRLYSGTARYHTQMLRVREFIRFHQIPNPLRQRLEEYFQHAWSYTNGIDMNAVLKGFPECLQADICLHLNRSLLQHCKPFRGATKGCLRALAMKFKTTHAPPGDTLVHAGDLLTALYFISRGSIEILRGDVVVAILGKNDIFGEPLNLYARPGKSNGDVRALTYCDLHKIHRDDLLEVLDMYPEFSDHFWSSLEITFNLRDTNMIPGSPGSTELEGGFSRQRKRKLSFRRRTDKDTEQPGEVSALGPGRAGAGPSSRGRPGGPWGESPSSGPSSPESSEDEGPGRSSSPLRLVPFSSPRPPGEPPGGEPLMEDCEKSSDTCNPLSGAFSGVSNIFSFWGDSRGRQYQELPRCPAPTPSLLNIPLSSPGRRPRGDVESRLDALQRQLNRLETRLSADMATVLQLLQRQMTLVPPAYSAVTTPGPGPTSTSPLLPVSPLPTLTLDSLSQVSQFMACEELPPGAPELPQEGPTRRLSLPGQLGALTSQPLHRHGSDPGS
row,SMILES,"hERG current change (%, negative = inhibition) at 1uM [%]"
1,Cc1cc(C)cc(C(=O)NC(=S)Nc2ccc(-c3cc4ccccc4oc3=O)cc2)c1,8.98
2,CCOC(=O)c1c(C2CC2)csc1NC(=O)COC(=O)c1cc(OC)c(OC)cc1[N+](=O)[O-],15.9
3,CCOC(=O)C1(Cc2cccc(OC)c2)CCN(Cc2cccc3c2OCO3)CC1,-0.93
4,O=C(NCC1CCCO1)c1ccc2c(c1)C(=O)N(c1cccc([N+](=O)[O-])c1)C2=O (stereo not drawn),15
5,COc1ccc(NC(=O)Nc2cccs2)cc1OC,12.3
6,COc1ccc(-c2cc(C(=O)NCC(C)C)no2)cc1,-5.29
7,O=C(NCCc1ccccc1)C(=O)NCC1OCCN1S(=O)(=O)c1cc(F)ccc1F (stereo not drawn),-2.25
8,Cc1cc(NNC(=O)Nc2cccc(Cl)c2)nc2c1c(C)nn2C,9.23
9,COC(=O)C(NC(=O)c1ccccc1)(Nc1nc(C)cs1)C(F)(F)F (stereo not drawn),20.7
10,O=C(/C(=C/c1cccc(Cl)c1)c1nc2ccccc2[nH]1)c1ccccc1,7.65
11,COC(=O)CNC(=O)CN(c1ccc(OC)cc1OC)S(=O)(=O)c1ccccc1,15.7
12,Cc1nc(NCc2ccco2)nc2c1C(=O)CC(C)C2 (stereo not drawn),-1.42
13,COc1cccc(NC(=O)c2cnsn2)c1,6.53
14,Nc1scc[n+]1Cc1cccc2cccnc12.[Br-],4.56
15,C=CCNc1nc2ccccc2nc1NS(=O)(=O)c1ccc(Br)cc1,11
16,Cc1cc(C)cc(Nc2nc3c([nH]2)c(=O)n(C)c(=O)n3C)c1,7.22
17,COc1ccc(C(=O)Nc2cc(C)on2)cc1S(=O)(=O)N1CC(c2ccccc2)CC1=O (stereo not drawn),9.79
18,CCOC(=O)c1ccc(NC(=O)CN2CCN(C(=O)C3CCCO3)CC2)cc1 (stereo not drawn),15.6
19,CN(Cc1cccc(F)c1)C(=O)c1ccc(NS(=O)(=O)c2ccc3[nH]c(=O)[nH]c3c2)cc1,11.7
20,CO/N=C/C(C(C)=O)C(=O)Nc1ccc(Cl)cc1Cl (stereo not drawn),8.8
21,Cc1ccccc1OCCSc1nc(N(C)C)nc(N(C)C)n1,23.2
22,C=CCn1c(O)c(/C=N/N2CCOCC2)c(=O)[nH]c1=S,8.18

row,SMILES,"hERG current change (%, negative = inhibition) at 1uM [%]"
1,COCc1nnc(NC(=O)CCCOc2ccccc2OC)s1,16.6
2,Cc1nn2c(-c3ccc(Cl)cc3Cl)nnc2s1,-0.908
3,CC/C(C)=N/Nc1nc2c(c(=O)[nH]c(=O)n2C)n1CCc1ccccc1,23.6
4,COc1ccc(N2CC(C(=O)Nc3nnc(SCc4cccnc4)s3)CC2=O)cc1 (stereo not drawn),10.5
5,O=C(O)c1ccc(N=Cc2c(O)n(Cc3ccc(F)cc3)c(=O)[nH]c2=O)cc1,5.7
6,COc1ccc(F)cc1C(=O)C1CCCN(Cc2cnc(N3CCCC3)s2)C1 (stereo not drawn),-0.126
7,CC(OC(=O)c1ccc2c(=O)n3c(nc2c1)CCCCC3)C(=O)Nc1ncc(Cl)cc1Cl (stereo not drawn),7.83
8,COc1ccc(CNC(=O)CCCSc2ccccc2)cc1,5.45
9,CCS(=O)(=O)CCSC1OC(COC(C)=O)C(OC(C)=O)C(OC(C)=O)C1OC(C)=O (stereo not drawn),5.65
10,Cc1ccc2c(c1)C1CN(C)CCC1N2C(=O)Cc1cccs1.Cl (stereo not drawn),7.01
11,O=C(C1=C[C@@H](c2ccc(Br)cc2)C[C@@H](OCc2ccc(CO)cc2)O1)N1CCN(Cc2ccc3c(c2)OCO3)CC1,1.73
12,CCc1cc(C(=O)N2CCc3c([nH]c4ccccc34)C2c2ccc(OC)cc2F)no1 (stereo not drawn),17.6
13,CCOC(=O)N1CCN(C(=O)CSc2ccc(-c3ccccc3)nn2)CC1,3.11
14,O=C(O)c1ccc(/C=C(\c2nc3ccccc3[nH]2)c2nc3ccccc3s2)cc1,12.7
15,N#Cc1c(N)n(-c2cccc(C(=O)O)c2)c2nc3ccccc3nc12,7.61
16,Cc1ccc(C)c(NS(=O)(=O)c2cc(C(=O)NCC3CCCO3)ccc2C)c1 (stereo not drawn),1.35
17,CC(Cc1cccs1)NC(=O)Nc1ccc([N+](=O)[O-])cc1 (stereo not drawn),-6.07
18,CC(=O)c1ccc(NC(=O)C(C)N(C)CC(=O)Nc2ccc(Cl)cc2)cc1 (stereo not drawn),2.92
19,CSCCC(NC(=O)c1ccccc1Br)C(=O)N1CCN(C(C)=O)CC1 (stereo not drawn),17.3
20,Cc1ccc(S(=O)(=O)N2CCC(NC(=O)C3CCCCC3)CC2)cc1,13.9
21,Cc1cc(-c2c(C)[nH]n(-c3ccc(Cl)cc3)c2=O)n(-c2ccc(Cl)cc2)n1,5.46
22,Cc1ccc(NC(=O)c2ccc3nc(N4CCOCC4)sc3c2)c(Cl)c1,7.79

row,SMILES,"hERG current change (%, negative = inhibition) at 1uM [%]"
1,CCc1ccc(CN2CCCC(C(=O)N3CCCCC3)C2)cc1.O=C(O)C(=O)O (stereo not drawn),-11.4
2,Cn1nnnc1SCC(=O)N1CCN(c2ccc(Cl)cc2)CC1,-16.2
3,CCN(CC)CCNc1nc(-c2ccc(OC(F)F)cc2)c(C)s1,-31.4
4,CCOc1ccc2[nH]c(=O)c(CN(Cc3nnnn3Cc3ccccc3)CC3CCCO3)cc2c1 (stereo not drawn),0.593
5,CCn1c(COc2c(C)cccc2C)nnc1SCc1nc2ccccc2c(=O)[nH]1,7.61
6,O=C(NNC(=S)Nc1cccc2ccccc12)c1cccc(Br)c1,3.48
7,O=[N+]([O-])c1ccc(N2CCN(c3ccccc3)CC2)cc1,9.45
8,Cc1cccc(NC(=S)NC(=O)/C=C/c2ccco2)c1,14.3
9,COc1ccc(NC(=O)Nc2ccon2)cc1OC,-8.08
10,Clc1cccc(Cl)c1OCCOCCNCc1ccccc1.O=C(O)C(=O)O,9.9
11,Cn1c(=O)c2cc(S(=O)(=O)NCCC(=O)NCCC3=CCCCC3)ccc2n(C)c1=O,2.16
12,OC[C@H]1O[C@@H](n2cnc3c(NC4CCCC4)ncnc32)[C@H](O)[C@@H]1O,10.5
13,Cc1cccc(C(=O)N2N=C(c3ccc(NS(C)(=O)=O)cc3)CC2c2cccs2)c1 (stereo not drawn),7.91
14,COc1ccc(-c2cc(-c3ccccc3)n3ncnc3n2)cc1,8.02
15,COCCCn1c(C)nnc1SCC(=O)NNC(=O)COc1ccc(Cl)cc1,11.8
16,Cc1ccc(C2(C)NC(=O)N(CC(=O)NNC(=O)c3ccoc3C)C2=O)cc1 (stereo not drawn),19.9
17,CCCC(=O)C1=C(O)C(C(=O)OC)C(C)(C)CC1=Nc1ccc(N)cc1 (stereo not drawn),-7.56
18,Cc1ccc(C)c(-n2cc(CN3CCNC(=O)CC3)c(-c3ccccc3)n2)c1,3.8
19,COC(=O)Cn1c(=NC(=O)c2ccc(Cl)s2)sc2cc(C)ccc21,19.2
20,COCC(=O)Nc1ccccc1-c1ccccc1,13.7
21,Cc1ccc(C(=O)NCCCNC(=O)c2ccco2)cn1,6.51
22,COc1ccc(S(=O)(=O)Nc2nc3ccccc3nc2Nc2cccc(C(=O)O)c2)cc1,9.85

row,SMILES,"hERG current change (%, negative = inhibition) at 1uM [%]"
1,COc1ccccc1CNC(=O)COC(=O)Cc1c(F)cccc1Cl,9.18
2,COc1cc(/C=C/C(=O)N(C)c2ccccc2C(=O)O)cc(OC)c1OC,5.28
3,CN(CC(=O)NCc1ccccc1)S(=O)(=O)c1cnc[nH]1,15.3
4,CC(C)(C)NC(=O)C1N(c2cccnc2)C(=O)C2C(C(=O)Nc3ccccc3)C3(C)C=CC21O3 (stereo not drawn),5.41
5,COc1ccc(S(=O)(=O)Nc2nc3c(s2)CCCC3)cc1,10.1
6,CSc1cccc(NC(=S)N2CCC(N(C)C(C)C)CC2)c1,7.06
7,Cc1ccc(-n2ncc3c(NCc4ccco4)ncnc32)c(C)c1,8.65
8,Cn1cnc([N+](=O)[O-])c1Sc1ccccc1,5.83
9,CCOC(=O)n1c(=O)n(Cc2ccc(F)cc2)c2ccccc21,0.451
10,CCN1C(=O)/C(=C/c2cnn(CC)c2C)SC1=S,13.2
11,COc1ccc(C(=O)N/N=C(/C)c2cccc(NC(=O)C(F)(F)F)c2)cc1,13.6
12,O=C(COc1ccccc1Cl)NCCNC(=O)c1cnccn1,7.9
13,O=C(NCc1cccc(Cl)c1)c1ccc(CS(=O)Cc2ccc(Cl)cc2)o1 (stereo not drawn),8.53
14,COc1ccc(-c2cc(C)no2)cc1S(=O)(=O)N1CCOc2ccc(C)cc21,15.2
15,CCOc1cc2[nH]c(=O)n(CCC(=O)N3CCN(c4ccccc4OC)CC3)c(=O)c2cc1OCC,8.01
16,Cc1cccc(NC(=O)N[C@@H](C)C(=O)O)c1,-2.51
17,N#Cc1ccc(NC(=O)Cn2cnc(S(=O)(=O)N3CCOCC3)c2)cc1,13.1
18,Cc1ccc(OCC(=O)Nc2cccnc2Cl)cc1C,10.7
19,CCSC(C)CC1C/C(=N/O)c2c(C)noc2C1 (stereo not drawn),-48.9
20,CC(O)c1nc2ccccc2n1CC(=O)Nc1ccc2c(c1)OCCO2 (stereo not drawn),14.1
21,C=C1CCN([C@@H](CC(C)C)C(=O)NCc2ccc(OC)cc2)S(=O)(=O)c2ccccc21,-13.8
